{
  "source": "paper PMC4336329",
  "about": "(PLoS ONE, 2015)",
  "note": "Out of some 310,000 compounds screened, about 2,200 (0.71%) showed an effect of 50% or more. The effect is printed as a negative number. The list shows a part of the results.",
  "data": [
    {"biological_target": "human ether-à-go-go-related gene (hERG) potassium channel (human, UniProt Q12809)", "sequence (Q12809 whole entry, looked up)": "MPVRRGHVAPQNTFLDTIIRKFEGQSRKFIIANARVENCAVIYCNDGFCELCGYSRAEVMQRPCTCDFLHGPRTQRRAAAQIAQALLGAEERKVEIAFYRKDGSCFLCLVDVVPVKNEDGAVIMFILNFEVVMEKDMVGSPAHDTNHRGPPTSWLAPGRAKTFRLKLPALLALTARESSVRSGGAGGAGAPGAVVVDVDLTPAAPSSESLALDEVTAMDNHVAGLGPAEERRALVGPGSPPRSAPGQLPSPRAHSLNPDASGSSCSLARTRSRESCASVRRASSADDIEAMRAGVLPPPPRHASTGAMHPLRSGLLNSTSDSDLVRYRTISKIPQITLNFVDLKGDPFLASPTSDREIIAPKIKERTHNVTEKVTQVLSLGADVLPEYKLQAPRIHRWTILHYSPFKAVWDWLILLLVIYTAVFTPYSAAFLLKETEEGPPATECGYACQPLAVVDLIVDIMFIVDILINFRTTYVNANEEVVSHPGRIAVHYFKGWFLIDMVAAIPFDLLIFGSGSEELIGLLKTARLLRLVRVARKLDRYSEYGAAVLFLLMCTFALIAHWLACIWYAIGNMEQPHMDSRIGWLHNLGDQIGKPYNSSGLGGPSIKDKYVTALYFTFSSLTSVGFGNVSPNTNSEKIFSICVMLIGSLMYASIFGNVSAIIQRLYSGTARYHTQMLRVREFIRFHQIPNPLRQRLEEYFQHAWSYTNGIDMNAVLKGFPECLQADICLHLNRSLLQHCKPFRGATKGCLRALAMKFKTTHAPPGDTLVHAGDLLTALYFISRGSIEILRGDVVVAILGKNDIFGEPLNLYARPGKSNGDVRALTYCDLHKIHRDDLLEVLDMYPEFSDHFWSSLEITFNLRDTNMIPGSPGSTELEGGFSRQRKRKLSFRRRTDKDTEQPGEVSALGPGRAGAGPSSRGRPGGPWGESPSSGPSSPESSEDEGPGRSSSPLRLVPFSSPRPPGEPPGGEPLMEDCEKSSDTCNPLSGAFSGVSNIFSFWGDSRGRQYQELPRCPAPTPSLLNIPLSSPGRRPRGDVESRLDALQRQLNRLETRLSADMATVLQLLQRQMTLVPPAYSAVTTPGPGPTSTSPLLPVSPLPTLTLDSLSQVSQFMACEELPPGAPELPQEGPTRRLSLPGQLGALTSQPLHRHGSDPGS", "test": "primary screen, population patch clamp on CHO cells stably expressing hERG", "units": {"hERG current change (%, negative = inhibition) at 1uM": "%"}, "values": [
      {"smiles": "Cc1cccc(OCC(=O)NCC(=O)N/N=C/c2ccc([N+](=O)[O-])cc2)c1", "hERG current change (%, negative = inhibition) at 1uM": 4.89},
      {"smiles": "COc1ccc(/C(C)=N/NC(=O)CNC(=O)/C=C\\c2ccco2)cc1", "hERG current change (%, negative = inhibition) at 1uM": 8.21},
      {"smiles": "CC(/C=C\\c1ccccc1)=C/C(=O)[O-]", "hERG current change (%, negative = inhibition) at 1uM": 11.1},
      {"smiles": "Cc1nn(CC(=O)N2CCN(c3ccccc3)CC2)c(=O)c2cccn12", "hERG current change (%, negative = inhibition) at 1uM": 15.1},
      {"smiles": "CCc1c(C)nc(SCCOc2ccc(OC)cc2)[nH]c1=O", "hERG current change (%, negative = inhibition) at 1uM": 12.3},
      {"smiles": "CCOC(=O)C(C(=O)Nc1ccccn1)C1CCCCC1", "note": "(centres unmarked)", "hERG current change (%, negative = inhibition) at 1uM": 2.69},
      {"smiles": "COC(=O)c1ccccc1NC(=O)c1cccc(NC(=O)c2ccc(Br)o2)c1C", "hERG current change (%, negative = inhibition) at 1uM": 8.2},
      {"smiles": "Cc1nc(CN(C)C(=O)C2CCC(=O)N(CCc3cccc(F)c3)C2)cs1", "note": "(centres unmarked)", "hERG current change (%, negative = inhibition) at 1uM": 6.16},
      {"smiles": "CSc1ncc(OCc2ccccc2)c(=O)[nH]1", "hERG current change (%, negative = inhibition) at 1uM": 12.8},
      {"smiles": "Fc1ccc(-n2nnc(-c3cnc4ccccc4c3)n2)cc1", "hERG current change (%, negative = inhibition) at 1uM": 5.7},
      {"smiles": "CCOc1ccc(C2=Nn3cnnc3SC2)cc1", "hERG current change (%, negative = inhibition) at 1uM": -6.87},
      {"smiles": "CC1CC(C)CN(C(=O)c2cc3cc(Br)cc(Br)c3o2)C1", "note": "(centres unmarked)", "hERG current change (%, negative = inhibition) at 1uM": 11.6},
      {"smiles": "COc1cc(OC)c(OC)cc1/C=N/NC(=S)NCCN1CCOCC1", "hERG current change (%, negative = inhibition) at 1uM": 3.63},
      {"smiles": "COc1ccc(C[C@H]2CN3C(=NC[C@H]3C)N2CCNC(=O)CCC2CCCCC2)cc1", "hERG current change (%, negative = inhibition) at 1uM": -51.9},
      {"smiles": "Cc1ccn2c(C(=O)c3ccc(Cl)cc3)cnc2c1", "hERG current change (%, negative = inhibition) at 1uM": 12.7},
      {"smiles": "CCCCCN(C(=O)CSc1n[nH]c(-c2ccc(C)cc2)n1)c1c(N)n(CCCC)c(=O)[nH]c1=O", "hERG current change (%, negative = inhibition) at 1uM": 15.8},
      {"smiles": "C=C(C)Cn1c(CCn2c3ccccc3c3ccccc32)n[nH]c1=S", "hERG current change (%, negative = inhibition) at 1uM": 4.97},
      {"smiles": "N#Cc1cccnc1Nc1ccc(Cl)cc1", "hERG current change (%, negative = inhibition) at 1uM": -7.84},
      {"smiles": "CC(C)OCCCn1c(SC(C)C(=O)NC2CC2)nc2ccccc2c1=O", "note": "(centres unmarked)", "hERG current change (%, negative = inhibition) at 1uM": 1.83},
      {"smiles": "O=C(CN1CCSCC1)N/N=C/c1ccc(Cl)cc1", "hERG current change (%, negative = inhibition) at 1uM": -0.466},
      {"smiles": "O=S(=O)(c1ccccc1)N(F)S(=O)(=O)c1ccccc1", "hERG current change (%, negative = inhibition) at 1uM": -0.313},
      {"smiles": "CC1=C(C)CC(C(=O)Nc2ccc3c(c2)OCO3)C(C(=O)O)C1", "note": "(centres unmarked)", "hERG current change (%, negative = inhibition) at 1uM": 11.8},
      {"smiles": "O=C(CC(C(=O)O)c1cccc(Cl)c1Cl)c1ccccc1", "note": "(centres unmarked)", "hERG current change (%, negative = inhibition) at 1uM": 20.3},
      {"smiles": "CC(=O)N1CCc2cc(S(=O)(=O)C(C)CC(=O)NCc3ccc(C)o3)ccc21", "note": "(centres unmarked)", "hERG current change (%, negative = inhibition) at 1uM": 19},
      {"smiles": "CCOc1ccc(OCCC(=O)OCC(=O)Nc2ccc(N3CCOCC3)cc2)cc1", "hERG current change (%, negative = inhibition) at 1uM": 12.9},
      {"smiles": "C#Cc1cccc(C(=O)N2CCCC(C(=O)c3ccc(OC)cc3C)C2)c1", "note": "(centres unmarked)", "hERG current change (%, negative = inhibition) at 1uM": 5.32},
      {"smiles": "C=C1CCN([C@@H](CC(C)C)C(=O)N2CCCC2)S(=O)(=O)c2ccccc21", "hERG current change (%, negative = inhibition) at 1uM": -4.55},
      {"smiles": "Cc1ccc(NC(=S)NC(=O)c2ccccc2)cc1NC(=S)NC(=O)c1ccccc1", "hERG current change (%, negative = inhibition) at 1uM": 11.3},
      {"smiles": "CCc1nnc(NC(=O)CSc2n[nH]c(-c3ccccc3O)n2)s1", "hERG current change (%, negative = inhibition) at 1uM": 4.65},
      {"smiles": "O=[N+]([O-])c1ccc(NCCCO)c(S(=O)(=O)N2CCOCC2)c1", "hERG current change (%, negative = inhibition) at 1uM": 2.08},
      {"smiles": "Cc1ccc(-n2c3nc(=O)[nH]c(=O)c-3cc3cc([N+](=O)[O-])ccc32)cc1", "hERG current change (%, negative = inhibition) at 1uM": -10.4},
      {"smiles": "COc1ccc(CNC(=O)COC(=O)CCOc2ccc(C)cc2)cc1OC", "hERG current change (%, negative = inhibition) at 1uM": 11.9},
      {"smiles": "COc1ccc(C(C(=O)NC2CCCCC2)N(C(=O)c2ccco2)c2ccccc2C(C)=O)cc1", "note": "(centres unmarked)", "hERG current change (%, negative = inhibition) at 1uM": 10.2},
      {"smiles": "CN1CCN(S(=O)(=O)c2csc(C(N)=O)c2)CC1", "hERG current change (%, negative = inhibition) at 1uM": 13},
      {"smiles": "CCCC12CN3CC(CCC)(CN(C1)C3C(O)C(O)C(O)CO)C2=O", "note": "(centres unmarked)", "hERG current change (%, negative = inhibition) at 1uM": 5.69},
      {"smiles": "Cc1nc2sc(C(c3cccc(F)c3)N3CCC(C)CC3)c(O)n2n1", "note": "(centres unmarked)", "hERG current change (%, negative = inhibition) at 1uM": 3.46},
      {"smiles": "Cc1ccc2nc(N3CCN(S(=O)(=O)c4ccc5c(c4)OCCO5)CC3)c(C#N)cc2c1", "hERG current change (%, negative = inhibition) at 1uM": 11.1},
      {"smiles": "O=C1NC(=O)C2C1C(c1ccccc1)N1C3C(=O)NC(=O)C3C(c3ccccc3)N21", "note": "(centres unmarked)", "hERG current change (%, negative = inhibition) at 1uM": 10.3},
      {"smiles": "COc1ccc(NC(=S)N/N=C/c2cccn2Cc2ccccc2F)cc1", "hERG current change (%, negative = inhibition) at 1uM": 7.36},
      {"smiles": "CSc1nsc(SCC(=O)Nc2ccc(O)c(C(=O)O)c2)n1", "hERG current change (%, negative = inhibition) at 1uM": 6.95},
      {"smiles": "COc1ccc(N(C)S(=O)(=O)c2ccc3c(c2)NC(=O)CO3)c(OC)c1", "hERG current change (%, negative = inhibition) at 1uM": 6.48},
      {"smiles": "CC1(C)CC(n2c(NCCO)nc3c(c2=O)C2(CCCC2)Cc2ccccc2-3)CCO1", "note": "(centres unmarked)", "hERG current change (%, negative = inhibition) at 1uM": 13.3},
      {"smiles": "Cn1c(=O)c2c(nc(NCCCO)n2Cc2cccc(Br)c2)n(C)c1=O", "hERG current change (%, negative = inhibition) at 1uM": 11},
      {"smiles": "COc1ccc(Cc2noc(CN3CCCC(OCc4ccccn4)C3)n2)cc1OC", "note": "(centres unmarked)", "hERG current change (%, negative = inhibition) at 1uM": 1.93}
    ]}
  ]
}
